Several values for one entry are separate records, joined by “and”; a condition that tells them apart may be missing. Equal entries are not always repeated. Out of some 310,000 compounds screened, about 11,000 (3.5%) were called active. Inconclusive means that the source gave no clear call. Such entries were picked first, then a sample of the others. Calls follow the shape of the dose curve; as a rule, active = well fitted inhibition curve with a large enough effect; inconclusive = small, poorly fitted or top-dose-only effect, or effect the other way; inactive = flat fitted curve, though single readings scatter. Potencies of inconclusive entries are left out as doubtful fits.
Assay: VP16 counterscreen qHTS for inhibitors of ROR gamma transcriptional activity;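 also: Gal4-VP16 expression switched on by copper sulfate through the metallothionein promoter; nearly all actives have a fitted effect of over 50% in size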
Settings: Drosophila S2 Gal4-VP16 UAS-luciferase, luminescence, 20 h; series mostly up to 53.6 µM
For `CCn1nccc1C(=O)Nc1nc2ccccc2n1CCN1CCCCC1`, the Potency was inconclusive [inhibitor, single point]. For `O=C(Nc1ccc(Oc2cccnc2)nc1)c1ccc(C(F)(F)F)cc1`, the Potency was inconclusive [inhibitor, partial curve, poor fit]. For `Cc1csc(NC(=O)c2ccc(N3CCCC3=O)cc2)n1`, the Potency was inconclusive [inhibitor, partial curve, poor fit]. In the case of `CCOc1ccc(-c2nnc(-c3ccncc3)o2)cc1`, the Potency is reported as inconclusive [inhibitor, partial curve]. For `O=C(Oc1ccc(Cl)c2cccnc12)C12CC3CC(CC(C3)C1)C2`, the Potency was active: 3.16 µM. In the case of `N=c1n(CCN2CCOCC2)c2ccccc2n1CC(=O)c1ccc(Cl)c(Cl)c1`, the Potency is reported as active: 3.98 µM. With `CC(C)COCC(CN(Cc1ccccc1)c1ccccc1)N1CCCC1` (centres undefined) the Potency was inconclusive [inhibitor, single point]. In the case of `O=C(COC(=O)C1(c2ccccc2)CC1)N1CCN(c2ccc(F)cc2)CC1`, the Potency is reported as “inactive”. For `O=C(Nc1ccc(F)cc1)C(c1ccccc1)N1CCN(S(=O)(=O)c2c(F)cccc2F)CC1` (centres undefined), the Potency was “inactive”. With `CC(=O)Nc1ccc(NC(=O)c2c(-c3ccccc3Cl)noc2C)cc1` the Potency was “inactive”. With `CNC(=S)Nc1cccc(Cl)c1C` the Potency was inconclusive [inhibitor, partial curve, poor fit]. For `Cn1c(SCC(=O)c2cc(Cl)c(Cl)s2)nnc1-c1ccco1`, the Potency was inconclusive [activator, partial curve]. In the case of `CC[C@@]1(O)C(=O)OCc2c1cc1n(c2=O)Cc2cc3c([N+](=O)[O-])cccc3nc2-1`, the Potency is reported as active: 0.631 µM. With `CCc1c(C)[nH]c2c(C)cccc2c1=O` the Potency was inconclusive [inhibitor, single point]. With `COc1ccccc1NC1=C(N2CCCCC2)C(=O)c2ccccc2C1=O` the Potency was inconclusive [inhibitor, single point]. For `Cc1ccc2nc(NNC(=O)c3ccc(S(=O)(=O)N4CCc5ccccc5C4)cc3)sc2c1`, the Potency was “inactive”. For `O=S(=O)(Nc1nc2ccccc2nc1N1CCc2ccccc2C1)c1ccc(Cl)cc1`, the Potency was inconclusive [inhibitor, single point]. In the case of `Cc1cccc(NC(=O)C2CC(=O)NC(Nc3nc4ccccc4s3)=N2)c1` (centres undefined), the Potency is reported as inconclusive [activator, single point]. With `COc1cc(/C=C/C(=O)OCC(=O)Nc2sc3c(c2C#N)CCC(C)C3)ccc1OCC#N` (centres undefined) the Potency was inconclusive [activator, partial curve]. In the case of `O=C(CCCO)NNc1c2ccccc2nc2ccccc12`, the Potency is reported as inconclusive [inhibitor, single point]. For `C/C(=N\NC(=O)COc1ccccc1-c1ccccc1)c1cccnc1`, the Potency was “inactive”. For `COc1ccccc1NS(=O)(=O)c1ccc(C(=O)NCC(c2ccccc2OC)N(C)C)cc1` (centres undefined), the Potency was “inactive”. For `COCc1cc(CN2CCN(C)CC2)c(O)c2ncccc12`, the Potency was active: 5.62 µM. In the case of `CC(=O)N(/N=C1\Sc2ccccc2C1=O)c1ccc(C)cc1C`, the Potency is reported as inconclusive [inhibitor, partial curve]. For `Cc1ccc(S(=O)(=O)n2c(N)nc3ccccc32)cc1`, the Potency was inconclusive [inhibitor, single point]. With `C#CCN1C(=O)S/C(=C/C=C/c2ccc(N(C)C)cc2)C1=O` the Potency was inconclusive [inhibitor, single point]. For `Cc1noc(C)c1COC(=O)c1ccc(S(=O)(=O)NCc2ccco2)cc1`, the Potency was inconclusive [inhibitor, single point]. In the case of `Cc1ccccc1NC(=S)NC(=O)c1cncc(Br)c1`, the Potency is reported as inconclusive [inhibitor, single point]. For `N#C/C(=C(/O)c1ccc([N+](=O)[O-])cc1)c1nnc2n1CCCCC2`, the Potency was inconclusive [inhibitor, single point]. With `O=C(/C=C/Sc1ccccc1)c1ccc(Cl)cc1` the Potency was active: 14.1 µM. With `COC(=O)c1cc(CSc2nc3ccc(C)cc3[nH]2)oc1C` the Potency was inconclusive [inhibitor, single point]. In the case of `O=[N+]([O-])c1ccccc1Nc1c2ccccc2nc2ccccc12`, the Potency is reported as inconclusive [inhibitor, single point]. For `O=[N+]([O-])c1ccc(/C=C2\CCC(C3=CCCC3)=C2N2CCOCC2)cc1`, the Potency was active: 3.98 µM. In the case of `Cc1ccnc(NC(=O)CCC(=O)N(CC(=O)NCc2ccccc2)c2ccc3c(c2)OCO3)c1`, the Potency is reported as “inactive”. For `CCN(CC(=O)Nc1sc2c(c1C#N)CCCC2)Cc1nc2ccccc2c(=O)[nH]1`, the Potency was inconclusive [inhibitor, single point]. In the case of `COC(=O)C1=C(C)N(Cc2ccccc2)C(=S)N[C@H]1c1cccc(F)c1`, the Potency is reported as active: 17.8 µM and active: 12.6 µM. For `Cc1c(NC(=O)CSc2cccc3cccnc23)c(=O)n(-c2ccccc2)n1C`, the Potency was inconclusive [inhibitor, single point]. For `COc1cc(C=O)ccc1OCc1cccc(Br)c1`, the Potency was inconclusive [inhibitor, single point]. For `C/C(=N\NC(=O)CCn1nnc2ccccc21)c1cccs1`, the Potency was inconclusive [activator, partial curve]. For `Cc1nc(NC(=O)Nc2ccc(Cl)cc2)sc1C`, the Potency was inconclusive [activator, full curve]. For `CCCN(CCC)C(=O)c1cc([N+](=O)[O-])cc2c1-c1ccc([N+](=O)[O-])cc1C2=C(C#N)C#N`, the Potency was inconclusive [inhibitor, single point]. With `CC(C)(C)c1ccc(OCCCn2ccnc2)cc1` the Potency was active: 25.1 µM. In the case of `Cc1ccc2cc(CCNC(=O)c3cccc([N+](=O)[O-])c3)c(=O)[nH]c2c1C`, the Potency is reported as “inactive”. With `Cn1ncc2c(N3CCN(c4ccc(Cl)c(Cl)c4)CC3)ncnc21` the Potency was “inactive”. In the case of `Cc1ccc(CNS(=O)(=O)c2ccc3c(c2)n(C)c(=O)n3C)cc1`, the Potency is reported as inconclusive [inhibitor, single point]. For `COc1ccc(N2Cc3ccc(C(=O)N/N=C\c4ccc(O)cc4O)cc3C2)cc1`, the Potency was inconclusive [inhibitor, single point]. With `Cc1ccc(-c2noc(CCC(N)=O)n2)cc1` the Potency was inconclusive [inhibitor, single point]. In the case of `Cc1cc(C(=O)N/N=C/c2cc(Br)cc([N+](=O)[O-])c2O)c2ccccc2n1`, the Potency is reported as active: 3.16 µM. With `CC(C)(C)c1ccc2c(c1)OC(C(=O)N/N=C/c1ccc([N+](=O)[O-])o1)CO2` (centres undefined) the Potency was inconclusive [inhibitor, single point]. For `COc1ccc(Cl)cc1C(=O)NNC(=S)NC(=O)c1cc(-c2ccc(Cl)cc2)nc2ccccc12`, the Potency was inconclusive [inhibitor, single point]. In the case of `Cc1nn(-c2ccccc2)c(C)c1/C=N/n1c(-c2ccc(Cl)cc2)n[nH]c1=S`, the Potency is reported as active: 8.91 µM. For `CC(NC(=O)/C(C#N)=C/c1ccc(C(=O)O)cc1)c1ccccc1` (centres undefined), the Potency was inconclusive [inhibitor, partial curve, poor fit]. In the case of `COc1ccc(-c2oc3ccccc3c(=O)c2O)cc1OC`, the Potency is reported as inconclusive [inhibitor, single point]. For `O=C(Nc1cccc(C(F)(F)F)c1)C1CCCN1S(=O)(=O)c1cccc2cccnc12` (centres undefined), the Potency was inconclusive [inhibitor, single point]. In the case of `CCC(Cc1ccccc1)NS(=O)(=O)c1ccc2c(c1)NC(=O)CO2` (centres undefined), the Potency is reported as “inactive”. For `Cc1cc(C(=O)N2CCCC2C(=O)O)c(C)o1` (centres undefined), the Potency was “inactive”. In the case of `Nc1nc(SCC(=O)Nc2ccc([N+](=O)[O-])cc2)[nH]c(=O)c1NC(=O)c1ccc(Br)o1`, the Potency is reported as “inactive”. With `COc1c(C(O)CC(C)C)ccc2c1C(=O)OCc1cc(C)cc(O)c1O2` (centres undefined) the Potency was inconclusive [inhibitor, single point]. With `O=C(CSC(=S)N1CCOCC1)Nc1nc(-c2ccccc2)c(-c2ccccc2)o1` the Potency was inconclusive [inhibitor, single point]. With `FC(F)(F)Oc1ccc(NC(=S)Nc2ccccc2N2CCOCC2)cc1` the Potency was inconclusive [inhibitor, single point]. In the case of `Cc1cc(/C=N/n2cnnc2)c(C)n1-c1ccc(OCc2ccc(Cl)cc2)cc1`, the Potency is reported as inconclusive [inhibitor, single point]. For `Cc1ccc(Oc2nnc(-c3ccc(C)cc3)c3ccccc23)cc1`, the Potency was inconclusive [inhibitor, single point]. In the case of `Cc1cccnc1Nc1nc(-c2ccc(O)c(O)c2)cs1`, the Potency is reported as active: 7.08 µM. With `CCOC(=O)COc1ccc(S(=O)(=O)NCc2ccncc2)cc1` the Potency was active: 11.2 µM. With `O=C(CCSc1ccc(Cl)cc1)NC12CC3CC(CC(C3)C1)C2` the Potency was inconclusive [inhibitor, single point]. In the case of `COCC1CCN(C(=O)c2cc(COc3ccc4ncccc4c3)on2)CC1`, the Potency is reported as active: 6.31 µM. In the case of `COc1cccc(/C=N/Nc2ncnc3c2[nH]c2ccc(C)cc23)c1OC`, the Potency is reported as inconclusive [inhibitor, single point]. In the case of `S=C(Nc1cccc(Cl)c1)N1CCN(Cc2ccccc2)CC1`, the Potency is reported as inconclusive [inhibitor, single point]. For `Cc1ccc(Oc2ccc(-c3nc(N)nc(N)n3)cc2)cc1C`, the Potency was inconclusive [inhibitor, single point].

From PubChem BioAssay AID2546 (National Center for Advancing Translational Sciences (NCATS), 2010)
Potency is read from the fitted curve at half-maximal effect; tags tell the direction and shape of the fitted curve.
